# Results published in the supplement of paper PMC8728848.
# This is one part of the list.
# B1: Siglec-9 (Homo sapiens), Q9Y336 (protein)
# chain: MLLLLLPLLWGRERAEGQTSKLLTMQSSVTVQEGLCVHVPCSFSYPSHGWIYPGPVVHGYWFREGANTDQDAPVATNNPARAVWEETRDRFHLLGDPHTKNCTLSIRDARRSDAGRYFFRMEKGSIKWNYKHHRLSVNVTALTHRPNILIPGTLESGCPQNLTCSVPWACEQGTPPMISWIGTSVSPLDPSTTRSSVLTLIPQPQDHGTSLTCQVTFPGASVTTNKTVHLNVSYPPQNLTMTVFQGDGTVSTVLGNGSSLSLPEGQSLRLVCAVDAVDSNPPARLSLSWRGLTLCPSQPSNPGVLELPWVHLRDAAEFTCRAQNPLGSQQVYLNVSLQSKATSGVTQGVVGGAGATALVFLSFCVIFVVVRSCRKKSARPAAGVGDTGIEDANAVRGSASQGPLTEPWAEDSPPDQPPPASARSSVGEGELQYASLSFQMVKPWDSRGQEATDTEYSEIKIHR
# Assays:
# Experiment in all cases: glycan array binding signal (z-score within array); higher = stronger binding
# Details in all cases: glycan notation: IUPAC condensed, linker removed
# [1] = target: Gal(b1-3)[Fuc(a1-4)]GlcNAc(b1-3)Gal(b1-4)[Fuc(a1-3)]GlcNAc
# How it was run: (§1)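 Glycan array binding is given as a within-array Z-score, which can be read as non-binding when negative. The arrays, 3228 of them, came from the Consortium for Functional Glycomics database and were retained only where the protein sequence was available. Z-scores were averaged across arrays of the same protein sequence at different concentrations or buffers and across linkers.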
# [2] = target: Gal(b1-3)[Fuc(a1-4)]GlcNAc(b1-6)GalNAc
# How it was run: as §1
# [3] = target: Gal(b1-3)[GlcNAc(b1-6)]GalNAc
# How it was run: as §1
# [4] = target: Gal(b1-3)[Neu5Ac(a2-6)]GalNAc
# How it was run: as §1
# [5] = target: Gal(b1-3)[Neu5Ac(a2-6)]GlcNAc(b1-4)Gal(b1-4)Glc
# How it was run: as §1
# [6] = target: Gal(b1-3)[Neu5Ac(b2-6)]GalNAc
# How it was run: as §1
# Gal(b1-4)Gal = target: Gal(b1-4)Gal
# How it was run: as §1
# [7] = target: Gal(b1-4)GalNAc(a1-3)[Fuc(a1-2)]Gal(b1-4)GlcNAc
# How it was run: as §1
# [8] = target: Gal(b1-4)GalNAc(b1-3)[Fuc(a1-2)]Gal(b1-4)GlcNAc
# How it was run: as §1
# Gal(b1-4)Glc = target: Gal(b1-4)Glc
# How it was run: as §1
# Gal(b1-4)Glc6S = target: Gal(b1-4)Glc6S
# How it was run: as §1
# Gal(b1-4)GlcNAc = target: Gal(b1-4)GlcNAc
# How it was run: as §1
# [9] = target: Gal(b1-4)GlcNAc(a1-6)Gal(b1-4)GlcNAc
# How it was run: as §1
# Gal(b1-4)GlcNAc(b1-2)Man = target: Gal(b1-4)GlcNAc(b1-2)Man
# How it was run: as §1
# [10] = target: Gal(b1-4)GlcNAc(b1-2)Man(a1-3)Man(b1-4)GlcNAc(b1-4)GlcNAc
# How it was run: as §1
# [11] = target: Gal(b1-4)GlcNAc(b1-2)Man(a1-3)[Gal(b1-4)GlcNAc(b1-2)Man(a1-6)]Man(b1-4)GlcNAc(b1-4)GlcNAc
# How it was run: as §1
# [12] = target: Gal(b1-4)GlcNAc(b1-2)Man(a1-3)[Gal(b1-4)GlcNAc(b1-2)Man(a1-6)]Man(b1-4)GlcNAc(b1-4)[Fuc(a1-6)]GlcNAc
# How it was run: as §1
# [13] = target: Gal(b1-4)GlcNAc(b1-2)Man(a1-3)[Gal(b1-4)GlcNAc(b1-2)Man(a1-6)][Gal(b1-4)GlcNAc(b1-4)]Man(b1-4)GlcNAc(b1-4)[Fuc(a1-6)]GlcNAc
# How it was run: as §1
# [14] = target: Gal(b1-4)GlcNAc(b1-2)Man(a1-3)[Gal(b1-4)GlcNAc(b1-2)Man(a1-6)][GlcNAc(b1-4)]Man(b1-4)GlcNAc(b1-4)[Fuc(a1-6)]GlcNAc
# How it was run: as §1
# [15] = target: Gal(b1-4)GlcNAc(b1-2)Man(a1-3)[GlcNAc(b1-2)Man(a1-6)]Man(b1-4)GlcNAc(b1-4)GlcNAc
# How it was run: as §1
# [16] = target: Gal(b1-4)GlcNAc(b1-2)Man(a1-3)[GlcNAc(b1-4)][Gal(b1-4)GlcNAc(b1-2)Man(a1-6)]Man(b1-4)GlcNAc(b1-4)GlcNAc
# How it was run: as §1
# [17] = target: Gal(b1-4)GlcNAc(b1-2)Man(a1-3)[Man(a1-6)]Man(b1-4)GlcNAc(b1-4)GlcNAc
# How it was run: as §1
# [18] = target: Gal(b1-4)GlcNAc(b1-2)Man(a1-6)Man(b1-4)GlcNAc(b1-4)GlcNAc
# How it was run: as §1
# [19] = target: Gal(b1-4)GlcNAc(b1-2)Man(a1-6)[GlcNAc(b1-2)Man(a1-3)]Man(b1-4)GlcNAc(b1-4)GlcNAc
# How it was run: as §1
# [20] = target: Gal(b1-4)GlcNAc(b1-2)Man(a1-6)[Man(a1-3)]Man(b1-4)GlcNAc(b1-4)GlcNAc
# How it was run: as §1
# [21] = target: Gal(b1-4)GlcNAc(b1-2)[Gal(b1-4)GlcNAc(b1-4)]Man(a1-3)[Gal(b1-4)GlcNAc(b1-2)Man(a1-6)]Man(b1-4)GlcNAc(b1-4)GlcNAc
# How it was run: as §1
# [22] = target: Gal(b1-4)GlcNAc(b1-2)[Gal(b1-4)GlcNAc(b1-4)]Man(a1-3)[Gal(b1-4)GlcNAc(b1-2)[Gal(b1-4)GlcNAc(b1-6)]Man(a1-6)]Man(b1-4)GlcNAc(b1-4)GlcNAc
# How it was run: as §1
# [23] = target: Gal(b1-4)GlcNAc(b1-2)[Gal(b1-4)GlcNAc(b1-4)]Man(a1-3)[GlcNAc(b1-4)][Gal(b1-4)GlcNAc(b1-2)Man(a1-6)]Man(b1-4)GlcNAc(b1-4)GlcNAc
# How it was run: as §1
# [24] = target: Gal(b1-4)GlcNAc(b1-2)[Gal(b1-4)GlcNAc(b1-4)]Man(a1-3)[GlcNAc(b1-4)][Gal(b1-4)GlcNAc(b1-2)[Gal(b1-4)GlcNAc(b1-6)]Man(a1-6)]Man(b1-4)GlcNAc(b1-4)GlcNAc
# How it was run: as §1
# [25] = target: Gal(b1-4)GlcNAc(b1-2)[Gal(b1-4)GlcNAc(b1-6)]Man(a1-6)[Gal(b1-4)GlcNAc(b1-2)Man(a1-3)]Man(b1-4)GlcNAc(b1-4)GlcNAc
# How it was run: as §1
# [26] = target: Gal(b1-4)GlcNAc(b1-2)[Gal(b1-4)GlcNAc(b1-6)]Man(a1-6)[Gal(b1-4)GlcNAc(b1-2)Man(a1-3)]Man(b1-4)GlcNAc(b1-4)[Fuc(a1-6)]GlcNAc
# How it was run: as §1
# [27] = target: Gal(b1-4)GlcNAc(b1-2)[Gal(b1-4)GlcNAc(b1-6)]Man(a1-6)[GlcNAc(b1-4)][Gal(b1-4)GlcNAc(b1-2)Man(a1-3)]Man(b1-4)GlcNAc(b1-4)GlcNAc
# How it was run: as §1
# [28] = target: Gal(b1-4)GlcNAc(b1-2)[Gal(b1-4)GlcNAc(b1-6)]Man(a1-6)[GlcNAc(b1-4)][Gal(b1-4)GlcNAc(b1-2)[Gal(b1-4)GlcNAc(b1-4)]Man(a1-3)]Man(b1-4)GlcNAc(b1-4)[Fuc(a1-6)]GlcNAc
# How it was run: as §1
# [29] = target: Gal(b1-4)GlcNAc(b1-3)Gal(b1-3)GalNAc
# How it was run: as §1
# [30] = target: Gal(b1-4)GlcNAc(b1-3)Gal(b1-3)GlcNAc
# How it was run: as §1
# [31] = target: Gal(b1-4)GlcNAc(b1-3)Gal(b1-4)Glc
# How it was run: as §1
# [32] = target: Gal(b1-4)GlcNAc(b1-3)Gal(b1-4)GlcNAc
# How it was run: as §1
# [33] = target: Gal(b1-4)GlcNAc(b1-3)Gal(b1-4)GlcNAc(b1-2)Man(a1-3)[Gal(b1-4)GlcNAc(b1-3)Gal(b1-4)GlcNAc(b1-2)Man(a1-6)]Man(b1-4)GlcNAc(b1-4)GlcNAc
# How it was run: as §1
binder,measurement,setting,value
B1,glycan array binding signal (z-score),[1],0.014
same,glycan array binding signal (z-score),[2],-0.02
same,glycan array binding signal (z-score),[3],-0.237
same,glycan array binding signal (z-score),[4],-0.173
same,glycan array binding signal (z-score),[5],-0.042
same,glycan array binding signal (z-score),[6],-0.363
same,glycan array binding signal (z-score),Gal(b1-4)Gal,-0.072
same,glycan array binding signal (z-score),[7],-0.283
same,glycan array binding signal (z-score),[8],-0.297
same,glycan array binding signal (z-score),Gal(b1-4)Glc,-0.272
same,glycan array binding signal (z-score),Gal(b1-4)Glc6S,-0.2
same,glycan array binding signal (z-score),Gal(b1-4)GlcNAc,-0.244
same,glycan array binding signal (z-score),[9],-0.159
same,glycan array binding signal (z-score),Gal(b1-4)GlcNAc(b1-2)Man,0.004
same,glycan array binding signal (z-score),[10],-0.179
same,glycan array binding signal (z-score),[11],-0.354
same,glycan array binding signal (z-score),[12],-0.24
same,glycan array binding signal (z-score),[13],-0.418
same,glycan array binding signal (z-score),[14],-0.471
same,glycan array binding signal (z-score),[15],-0.371
same,glycan array binding signal (z-score),[16],-0.162
same,glycan array binding signal (z-score),[17],-0.235
same,glycan array binding signal (z-score),[18],-0.333
same,glycan array binding signal (z-score),[19],-0.011
same,glycan array binding signal (z-score),[20],-0.065
same,glycan array binding signal (z-score),[21],0.315
same,glycan array binding signal (z-score),[22],-0.283
same,glycan array binding signal (z-score),[23],-0.284
same,glycan array binding signal (z-score),[24],-0.224
same,glycan array binding signal (z-score),[25],-0.189
same,glycan array binding signal (z-score),[26],0.273
same,glycan array binding signal (z-score),[27],-0.211
same,glycan array binding signal (z-score),[28],-0.304
same,glycan array binding signal (z-score),[29],-0.1
same,glycan array binding signal (z-score),[30],0.172
same,glycan array binding signal (z-score),[31],-0.032
same,glycan array binding signal (z-score),[32],-0.249
same,glycan array binding signal (z-score),[33],0.358
